# Results: the BET-seq Pho4 binding data (Le et al. 2018)
# The other results are listed elsewhere or left out. Values were computed here from the reads of four pooled replicates and scatter widely.
# Molecular target: T1, Pho4 (S. cerevisiae) (UniProt P07270)
# T1 sequence: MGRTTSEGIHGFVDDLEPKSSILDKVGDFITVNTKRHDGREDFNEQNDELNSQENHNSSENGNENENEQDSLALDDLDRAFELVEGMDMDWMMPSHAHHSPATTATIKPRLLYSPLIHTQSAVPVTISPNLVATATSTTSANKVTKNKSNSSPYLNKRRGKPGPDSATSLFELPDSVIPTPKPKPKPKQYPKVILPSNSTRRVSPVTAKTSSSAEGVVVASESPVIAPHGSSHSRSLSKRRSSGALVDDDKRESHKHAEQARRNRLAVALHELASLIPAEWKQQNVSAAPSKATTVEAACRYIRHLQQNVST
# Assay: relative binding free energy (BET-seq); higher = weaker binding
# Settings: reference: library average
row,Sequence,relative binding free energy [kcal/mol]
1,AGATTCACGTGGTCGG,0.15
2,GATGCCACGTGAAGGT,0.29
3,TTAGGCACGTGGTGAC,-0.17
4,CGGGTCACGTGGACGT,0.12
5,CTTGGCACGTGCGGCG,-0.22
6,GTATTCACGTGGCAGT,0.27
7,GGTGGCACGTGTACGT,0.08
8,TTATTCACGTGTAGTT,0.29
9,ACTGGCACGTGTAGGT,-0.02
10,GAGTACACGTGAGGGG,0.27
11,GTGCGCACGTGAATTG,0.14
12,GCCTACACGTGGGGGG,-0.07
13,TGGGACACGTGTGTAC,0.18
14,CGGTGCACGTGTTGGT,0
15,GGTGCCACGTGAGAGT,0.2
16,AATGGCACGTGTTAGT,-0.07
17,AGGTACACGTGCGTGT,-0.03
18,AAAGTCACGTGCAGGG,0.04
19,GAATTCACGTGTGCGT,0.3
20,TAGTTCACGTGTGTAT,0.27
21,GCTGTCACGTGTTTAT,0.19
22,GCTGTCACGTGGGGTA,0
23,TTTCACACGTGGAGAA,0.2
24,TATTTCACGTGAGACG,0.42
25,AAGCTCACGTGTGTTG,0.23
26,AGGGACACGTGTTCGA,0.01

row,Sequence,relative binding free energy [kcal/mol]
1,AGTTTCACGTGGTAAT,0.29
2,GCGTTCACGTGATGGG,0.4
3,TGTCGCACGTGTTAAG,-0.01
4,AATTTCACGTGGGAAT,0.28
5,GACGGCACGTGGGGTT,-0.12
6,TGGTACACGTGGATAT,0.08
7,GAGTACACGTGTGGAG,0.34
8,GGCGTCACGTGGTTGC,0.02
9,AGAGTCACGTGTGGGA,0.18
10,TGGTGCACGTGTACGC,-0.04
11,TTTGCCACGTGTGGGT,0.15
12,TTAGGCACGTGGGTCT,-0.34
13,GTGGGCACGTGCGTAA,-0.12
14,TGATACACGTGTTATG,0.06
15,ATGGACACGTGTTGGA,0.18
16,TTTCTCACGTGATGAT,0.2
17,AAAATCACGTGTGAGT,0.35
18,CGTGGCACGTGGATTT,-0.12
19,CTAGTCACGTGTTAGG,0.08
20,GGTAGCACGTGAGGCC,0.31
21,ATGCTCACGTGATTTT,0.27
22,TGTCTCACGTGTTTAG,0.16
23,GAGTTCACGTGGGTTA,0.37
24,ATTTTCACGTGATATA,0.32
25,TGTTACACGTGCAGGC,0.2
26,AGCTTCACGTGTGGAT,0.24

row,Sequence,relative binding free energy [kcal/mol]
1,GGTGACACGTGCGTAA,0.04
2,TTGTTCACGTGGGGCG,0.18
3,TTTGGCACGTGGTAAG,-0.11
4,AGGTTCACGTGGGCCG,0.16
5,AAGATCACGTGTATGG,0.09
6,AATGGCACGTGCGGTT,-0.18
7,AGCTTCACGTGATGCT,0.37
8,TTTATCACGTGAGTCA,0.2
9,GGCCGCACGTGGTGGA,-0.16
10,TGGGGCACGTGTCTCT,-0.1
11,CGCTGCACGTGGGTTG,-0.24
12,GTTTTCACGTGGGGCA,0.26
13,GAGGACACGTGAGTTG,0.38
14,TGTAGCACGTGCAATG,-0.07
15,TGTAACACGTGTCATG,-0.02
16,AGTTGCACGTGCTATG,-0.1
17,TATGTCACGTGTAGAT,0.13
18,AGCGTCACGTGATGGG,0.16
19,TTGTACACGTGAATTA,0.32
20,TGTATCACGTGTTACA,0.16
21,GATTTCACGTGGCATG,0.41
22,GGTTACACGTGGTCAA,-0.04
23,AATGTCACGTGGACTG,0.26
24,GTTGGCACGTGGTGCT,-0.07
25,AGGGTCACGTGCGGAG,-0.12
26,TGCTACACGTGGTGAG,0.04

row,Sequence,relative binding free energy [kcal/mol]
1,GTGGACACGTGCGTGG,-0.08
2,ATCCGCACGTGGGTGG,-0.29
3,GAGTCCACGTGGGTTT,0.14
4,TAATTCACGTGTTGGT,0.26
5,TACATCACGTGTATGG,0.2
6,GGAGACACGTGTGCGT,-0.1
7,TCGAGCACGTGGGTTA,-0.21
8,CAGGTCACGTGGGAGT,0.02
9,CTATGCACGTGATGTG,0.14
10,GGGCTCACGTGGGCTA,0.24
11,AAGTACACGTGGCAGG,0.02
12,TGTTGCACGTGCTGCT,-0.03
13,TGGAGCACGTGCTGGC,-0.09
14,GAGGACACGTGAAGTT,0.28
15,GGTGACACGTGAGGTC,0.35
16,GTTTACACGTGGCTGT,0.16
17,GGGGACACGTGTAGTC,0.1
18,GTGGGCACGTGTGACT,-0.05
19,TAGTTCACGTGTTGTA,0.21
20,ATGGTCACGTGAATCT,0.42
21,GGTCGCACGTGTGAAG,0.17
22,CTTGCCACGTGGGGTG,-0.35
23,GTTTTCACGTGCGTTA,0.33
24,GGTCACACGTGCGGAG,0.05
25,GGTCTCACGTGCCGGG,0.19
26,TTAATCACGTGGTTTG,0.05

row,Sequence,relative binding free energy [kcal/mol]
1,GGTTTCACGTGGAATC,0.45
2,GGGCACACGTGTGGAG,0.13
3,GAATTCACGTGTTAGT,0.38
4,GAGCTCACGTGGGGAT,0.32
5,GTCAACACGTGGGGAG,0.04
6,TAGTTCACGTGTCGGG,0.28
7,TTGTTCACGTGGCAAT,0.28
8,TAGAACACGTGATGTT,0.23
9,TAAGTCACGTGTCAGG,0.08
10,CAGGGCACGTGTGGCT,-0.06
11,CGTGTCACGTGTAGGG,0.1
12,TGGATCACGTGTGGAA,0.21
13,GGAGTCACGTGCAGTT,0.16
14,GGCGTCACGTGTGGAG,0.11
15,TTGGTCACGTGCTGCA,0.04
16,GTAAGCACGTGGTGTC,-0.09
17,ATTCGCACGTGGTCGG,-0.13
18,TGGGTCACGTGACTGA,0.15
19,GTGCGCACGTGGTTAG,-0.28
20,TAAGTCACGTGTCTAG,0.08
21,TGAATCACGTGTCGGT,0.07
22,GCGTGCACGTGTGGCA,0.15
23,TATGTCACGTGAGCGG,0.26
24,GAGTCCACGTGGAAGG,0.26
25,TTGAGCACGTGGTATT,-0.16
26,GAATGCACGTGGGTTC,0.04

row,Sequence,relative binding free energy [kcal/mol]
1,TTGCACACGTGTTTTG,0.05
2,ATATGCACGTGATTAT,0.12
3,TGCGACACGTGAATTT,0.4
4,GTTTTCACGTGCTGGA,0.22
5,TTGTTCACGTGAGCGG,0.23
6,GGTTACACGTGCGTGC,0.06
7,ATTGCCACGTGCGGTT,-0.17
8,GGTATCACGTGTTGTG,0.31
9,CATATCACGTGGTTTG,0.02
10,TGGTACACGTGGGAAT,0.13
11,GTACGCACGTGGGTTA,-0.21
12,TACTTCACGTGTTTTA,0.21
13,TTATTCACGTGGTTAT,0.21
14,TAAAGCACGTGGTGTC,-0.12
15,AGGGTCACGTGGTTAC,0.13
16,TATAGCACGTGTTTCA,-0.01
17,TCATACACGTGGTAGG,-0.06
18,TTCAGCACGTGCCGGG,-0.06
19,TGGGTCACGTGTAGCC,0
20,GCTTTCACGTGAAGTG,0.46
21,TTTTTCACGTGTTAGG,0.32
22,TTGTTCACGTGTAGGC,0.27
23,AGTTTCACGTGAGAAT,0.43
24,TATATCACGTGGTCTT,0
25,GGTTTCACGTGGGAGA,0.4
26,AGTTACACGTGTATTG,0.06

row,Sequence,relative binding free energy [kcal/mol]
1,AAGTTCACGTGGTTTA,0.26
2,GTATACACGTGTAGTA,-0.04
3,ACGGACACGTGGGTTG,-0.01
4,GGGCGCACGTGGAGAT,-0.1
5,TTGCTCACGTGAGGGT,0.24
6,AAGGTCACGTGATAAG,0.36
7,CGGTGCACGTGCTATT,0.03
8,GTTACCACGTGGGGGG,-0.22
9,AGTAACACGTGTATGG,-0.11
10,GAATGCACGTGCGGGG,-0.06
11,TTATGCACGTGGGGGG,-0.16
12,GGTAACACGTGGGCAG,-0.16
13,TGAAGCACGTGGTCTG,-0.14
14,TCTTGCACGTGGTGCG,-0.05
15,GTTGCCACGTGTTGTA,0.02
16,GGAGTCACGTGGGGAG,-0.02
17,ATAGGCACGTGATCGT,-0.16
18,GTTAACACGTGGGTTG,-0.03
19,CGTGTCACGTGGTTTG,0.05
20,GGGGGCACGTGGCTTA,-0.14
21,ATTCGCACGTGAGATG,0.24
22,TAGTGCACGTGATATG,0.03
23,TATGTCACGTGATCAG,0.12
24,TATGGCACGTGGCTTT,-0.03
25,GGGCCCACGTGGGTGT,-0.14
26,TTTGTCACGTGGTTCA,-0.03

row,Sequence,relative binding free energy [kcal/mol]
1,AATGTCACGTGCGCGT,-0.03
2,AAGTGCACGTGCGGGC,-0.1
3,CATTTCACGTGATAGT,0.24
4,AGTCGCACGTGGGTGG,-0.27
5,TGTGTCACGTGAGGAA,0.18
6,GGTACCACGTGGGTGG,-0.07
7,GGGAACACGTGATTTA,0.25
8,GTTTTCACGTGACTAT,0.36
9,GGAATCACGTGGGTTA,-0.05
10,GTGGTCACGTGAAAAG,0.19
11,TTGGGCACGTGTGTGT,-0.04
12,GTTTTCACGTGATCAG,0.23
13,GTGAACACGTGTCGTT,0.1
14,GTAGTCACGTGGCTTT,0.01
15,GGGATCACGTGTGCAA,0.29
16,CTGTGCACGTGTATGG,-0.04
17,TTTAGCACGTGACGTA,0.04
18,GATTGCACGTGTGAAG,0.1
19,CTGTACACGTGAAAGT,0.43
20,TTGCTCACGTGGTGCT,0.06
21,CGGGCCACGTGAAGGG,0.02
22,ATATCCACGTGTAGGT,-0.03
23,TTGGTCACGTGAGGCA,0.34
24,CCAGGCACGTGTGGGC,0
25,TAAGGCACGTGGTCTT,-0.22
26,CGGGGCACGTGCTGGT,-0.21

row,Sequence,relative binding free energy [kcal/mol]
1,TTATACACGTGTAATA,0.06
2,CGGGGCACGTGCTAGT,-0.21
3,ATTCGCACGTGAGGAG,0.04
4,CGTATCACGTGCGGGT,0.08
5,TATGTCACGTGTATCT,-0.02
6,CGTGTCACGTGTTAGG,0
7,AGTCACACGTGGTGCG,0.14
8,ATTTTCACGTGTGTAG,0.25
9,GGGATCACGTGCGATT,0.25
10,TGGGCCACGTGAAGTT,0.28
11,CGTTTCACGTGGAGTC,0.46
12,GATGACACGTGATGTA,0.29
13,AGGAACACGTGTTGTA,0.04
14,ATAGCCACGTGTTGGT,-0.02
15,TAGATCACGTGTTTTA,0.14
16,ATGAACACGTGTAGTT,0.07
17,TATAGCACGTGGTGTT,-0.14
18,GAGTACACGTGTGGTA,0.18
19,TACGTCACGTGGTGGC,-0.02
20,ACAATCACGTGTTGGT,0.12
21,TTTCTCACGTGTAGTG,0.2
22,TGGGCCACGTGACGGT,-0.05
